Results taken from the supplement of paper PMC4967469.
The IC50 comes from the fitted curve, where viability falls to half of the control; where the fit passes the top or lowest dose, that dose stands as a limit. AUC is the area under the same curve over the 256-fold range up to the top dose, as a fraction; it is 1 without any effect and falls as sensitivity rises. For some of these results: Where the top dose is marked as inferred, it is not printed in the source and was worked back from the curve model. For some of these results: Drugs with an entry number were screened twice under separate entries, and the two screens often disagree.

Key:
Assay in all cases: Viability of human cancer cell lines after 72 h of drug (GDSC screen)
ABT-888 = compound: C[C@]1(c2nc3c(C(N)=O)cccc3[nH]2)CCCN1 [ABT-888]; details: top dose 5 µM; top dose inferred
Description: (§1)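 Human cancer cell lines in 384-well plates, medium with 10% serum, drug for 72 h over a 256-fold dose range (nine 2-fold or five 4-fold steps up to the top dose). Adherent lines were fixed and stained with the nucleic acid dye Syto60, suspension lines read with resazurin; signal relative to control wells, capped at 0 and 100%. One two-parameter sigmoid per drug and line, fitted in a mixed model over all curves with the slope shared within a line.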

(5Z)-7-Oxozeaenol = compound: COc1cc(O)c2c(c1)/C=C/C[C@H](O)[C@H](O)C(=O)/C=C\C[C@H](C)OC2=O [(5Z)-7-Oxozeaenol]; details: top dose 10 µM; top dose inferred
Description: as §1

GSK269962A = compound: CCn1c(-c2nonc2N)nc2cnc(Oc3cccc(NC(=O)c4ccc(OCCN5CCOCC5)cc4)c3)cc21 [GSK269962A]; details: top dose inferred
Description: as §1

CHIR-99021 = compound: Cc1cnc(-c2cnc(NCCNc3ccc(C#N)cn3)nc2-c2ccc(Cl)cc2Cl)[nH]1 [CHIR-99021]
Description: as §1

KU-55933 = compound: O=c1cc(-c2cccc3c2Sc2ccccc2S3)oc(N2CCOCC2)c1 [KU-55933]; details: top dose 10 µM
Description: as §1

Cytarabine = compound: Nc1ccn([C@@H]2O[C@H](CO)[C@@H](O)[C@@H]2O)c(=O)n1 [Cytarabine]; details: top dose 2 µM
Description: as §1

QL-X-138 = compound: C=CC(=O)Nc1cc(-n2c(=O)ccc3cnc4ccc(-c5cn[nH]c5)cc4c32)ccc1C [QL-X-138]; details: top dose 10.24 µM; top dose inferred
Description: as §1

Thapsigargin = compound: C/C=C(/C)C(=O)O[C@H]1C(C)=C2[C@H]([C@@H]1OC(=O)CCCCCCC)[C@@](C)(OC(C)=O)C[C@H](OC(=O)CCC)[C@@]1(O)[C@H]2OC(=O)[C@@]1(C)O [Thapsigargin]; details: top dose 0.512 µM; top dose inferred
Description: as §1

MPS-1-IN-1 = compound: COc1cc(N2CCC(O)CC2)ccc1Nc1cc(Nc2ccccc2S(=O)(=O)C(C)C)c2cc[nH]c2n1 [MPS-1-IN-1]; details: top dose 20 µM; top dose inferred
Description: as §1

ABT-869 = compound: Cc1ccc(F)c(NC(=O)Nc2ccc(-c3cccc4[nH]nc(N)c34)cc2)c1 [ABT-869]; details: top dose 1.024 µM; top dose inferred
Description: as §1

Zibotentan = compound: COc1nc(C)cnc1NS(=O)(=O)c1cccnc1-c1ccc(-c2nnco2)cc1 [Zibotentan]; details: top dose 20 µM; top dose inferred
Description: as §1

CP466722 = compound: COc1cc2ncnc(-n3nc(-c4ccccn4)nc3N)c2cc1OC [CP466722]; details: top dose 16 µM; top dose inferred
Description: as §1

[1] = top dose 5 µM, screen: GDSC drug entry 1192
[2] = top dose 10 µM, screen: GDSC drug entry 1241, top dose inferred
[3] = top dose 2.5 µM, screen: GDSC drug entry 127
[4] = top dose 2.56 µM, screen: GDSC drug entry 154

Cell Line	AUC (ABT-888)	IC50 (ABT-888) [µM]	AUC ((5Z)-7-Oxozeaenol)	IC50 ((5Z)-7-Oxozeaenol) [µM]	AUC (GSK269962A; [1])	IC50 (GSK269962A; [1]) [µM]	AUC (CHIR-99021; [2])	IC50 (CHIR-99021; [2]) [µM]	AUC (KU-55933)	IC50 (KU-55933) [µM]	AUC (Cytarabine)	IC50 (Cytarabine) [µM]	AUC (GSK269962A; [3])	IC50 (GSK269962A; [3]) [µM]	AUC (QL-X-138)	IC50 (QL-X-138) [µM]	AUC (Thapsigargin)	IC50 (Thapsigargin) [µM]	AUC (MPS-1-IN-1)	IC50 (MPS-1-IN-1) [µM]	AUC (ABT-869)	IC50 (ABT-869) [µM]	AUC (Zibotentan)	IC50 (Zibotentan) [µM]	AUC (CHIR-99021; [4])	IC50 (CHIR-99021; [4]) [µM]	AUC (CP466722)	IC50 (CP466722) [µM]
BALL-1 (B-cell leukaemia, suspension)	0.997	> 5	0.859	4.92	0.986	> 5	0.87	5.3	0.982	> 10	0.343	0.052																
CL-34 (large intestine, adherent)	0.98	> 5	0.545	0.84	0.906	> 5	0.986	> 10	0.977	> 10	0.868	> 2																
CL-40 (large intestine, adherent)	0.963	> 5	0.72	4.1	0.972	> 5	0.9	> 10	0.975	> 10	0.938	> 2																
CML-T1 (chronic myeloid leukaemia, suspension)	0.991	> 5	0.588	1.04	0.964	> 5	0.976	> 10	0.947	> 10	0.317	0.0426																
CRO-AP2 (B-cell lymphoma, suspension)	0.98	> 5	0.476	0.544	0.481	0.279	0.978	> 10	0.95	> 10	0.745	0.558	0.846	1.47														
DIFI (large intestine, adherent)	0.984	> 5	0.734	2.99	0.835	3.48	0.961	> 10	0.983	> 10	0.808	1.09																
EW-22 (Ewing sarcoma, adherent)	0.988	> 5	0.795	4.43	0.917	> 5	0.799	4.58	0.964	> 10	0.761	0.686	0.955	> 2.5														
HCC-366 (non-small cell lung carcinoma, adherent)	0.988	> 5	0.781	4.31	0.926	> 5			0.983	> 10	0.929	> 2																
JHOS-4 (ovary, adherent)	0.979	> 5							0.965	> 10	0.804	1.59																
KATOIII (stomach, semi-adherent)	0.99	> 5	0.749	3	0.977	> 5	0.915	> 10	0.967	> 10	0.942	> 2																
KNS-62 (lung squamous cell carcinoma, adherent)	0.956	> 5	0.631	1.69	0.967	> 5	0.975	> 10	0.905	> 10	0.8	1.53																
MDA-MB-175-VII (breast, adherent)	0.988	> 5	0.727	2.98	0.986	> 5	0.986	> 10			0.819	1.29			0.634	1.56	0.769	0.213	0.981	> 20	0.98	> 1.02	0.986	> 20	0.978	> 2.56	0.776	7.08
MEL-HO (melanoma, adherent)	0.986	> 5	0.079	< 0.0391	0.912	> 5	0.982	> 10	0.949	> 10	0.806	1.03																
MKN45 (stomach, adherent)	0.974	> 5	0.94	> 10	0.97	> 5	0.947	> 10			0.726	0.661			0.866	> 10.2	0.367	0.0124	0.941	> 20	0.982	> 1.02	0.983	> 20	0.971	> 2.56	0.888	> 16
MM1S (myeloma, suspension)	0.984	> 5							0.944	> 10	0.885	> 2																
Mewo (melanoma, adherent)	0.984	> 5	0.624	1.48	0.956	> 5	0.961	> 10			0.772	0.923			0.975	> 10.2	0.912	> 0.512	0.985	> 20	0.98	> 1.02	0.984	> 20	0.974	> 2.56	0.984	> 16
NCI-H2029 (small cell lung carcinoma, adherent)	0.949	> 5	0.834	5.65	0.967	> 5	0.992	> 10			0.972	> 2			0.887	9.48	0.874	0.417	0.964	> 20	0.992	> 1.02	0.992	> 20	0.992	> 2.56	0.96	> 16
NCI-H2122 (lung adenocarcinoma, adherent)	0.985	> 5	0.874	8.7	0.985	> 5	0.853	7.03			0.68	0.383			0.961	> 10.2	0.2		0.924	> 20	0.988	> 1.02	0.988	> 20	0.876	2.26	0.909	> 16
OCI-LY7 (B-cell lymphoma, suspension)	0.996	> 5			0.395	0.174			0.826	3.94	0.975	> 2																
PA-TU-8988T (pancreas, adherent)	0.969	> 5	0.482	0.557	0.879	> 5	0.907	> 10			0.639	0.304			0.757	3.54	0.157	0.00282	0.963	> 20	0.982	> 1.02	0.987	> 20	0.986	> 2.56	0.873	15.5
PANC-08-13 (pancreas, adherent)	0.97	> 5	0.803	6.69	0.977	> 5	0.955	> 10			0.825	1.68			0.832	9.25	0.43	0.0195	0.806	13.8	0.963	> 1.02	0.972	> 20	0.969	> 2.56	0.878	> 16
RMG-I (ovary, adherent)	0.979	> 5	0.332	0.195	0.851	4.87	0.9	> 10			0.957	> 2			0.53	0.783	0.47	0.0261	0.956	> 20	0.982	> 1.02	0.97	> 20	0.969	> 2.56	0.777	7.55
SCC-4 (head and neck, adherent)	0.966	> 5	0.831	8.06	0.942	> 5	0.975	> 10			0.751	0.767			0.931	> 10.2	0.363	0.0124	0.95	> 20	0.978	> 1.02	0.983	> 20	0.984	> 2.56	0.978	> 16
SW1990 (pancreas, adherent)	0.946	> 5	0.724	3.06	0.961	> 5	0.983	> 10			0.835	1.66			0.908	> 10.2	0.159	0.00227	0.985	> 20	0.978	> 1.02	0.985	> 20	0.985	> 2.56	0.975	> 16
U-266 (myeloma, semi-adherent)	0.968	> 5	0.74	3.95	0.938	> 5			0.982	> 10	0.929	> 2																
VMRC-MELG (melanoma, adherent)	0.966	> 5	0.848	7.95	0.988	> 5	0.852	8.33			0.932	> 2			0.972	> 10.2	0.387	0.0154	0.921	> 20	0.979	> 1.02	0.987	> 20	0.973	> 2.56	0.952	> 16
WM278 (melanoma, adherent)	0.984	> 5	0.511	0.672	0.895	> 5	0.779	4.63			0.761	0.797			0.984	> 10.2	0.246	0.00532	0.857	19.6	0.98	> 1.02	0.975	> 20	0.977	> 2.56	0.872	> 16
